Measured values from PMC9166750 (Scientific Reports, 2022).

What was measured:
Conditions in all cases: both partners purified
[1] = target: T1, syntaxin-3b cytoplasmic domain (residues 1–264) with C-terminal Avi-tag, wild type (mouse, UniProt Q64704-2 1-264, Alexa 488 (NHS ester) at the N-terminal primary amino group in the anisotropy assays; biotin (NHS-biotin) at the N-terminal primary amino group in the pull-downs); test: fluorescence polarisation; bulk fluorescence anisotropy; Alexa 488-labelled syntaxin about 0.5 μM in TBS (20 mM Tris pH 7.5, 150 mM NaCl, 0.5 mM TCEP), unlabelled SNAP-25A 0-0.900 μM, about 15 min at room temperature, 96 well plate; curves fit with Hill equations to estimate Kd
T1 construct: syntaxin-3b (splice isoform 3b of syntaxin-3), cytoplasmic domain, residues 1-264; Gene synthesized and inserted into pJ414 (ATUM); The two native cysteines lie in the transmembrane region, which the Avi-tag replaces; also called SX-3b; WT syntaxin-3b; source: E. coli BL21 (DE3*), purified (Ni-NTA, TEV cleavage, HiTrap Q); not shown: His6, N-terminal, cleaved
T1 sequence (looked up): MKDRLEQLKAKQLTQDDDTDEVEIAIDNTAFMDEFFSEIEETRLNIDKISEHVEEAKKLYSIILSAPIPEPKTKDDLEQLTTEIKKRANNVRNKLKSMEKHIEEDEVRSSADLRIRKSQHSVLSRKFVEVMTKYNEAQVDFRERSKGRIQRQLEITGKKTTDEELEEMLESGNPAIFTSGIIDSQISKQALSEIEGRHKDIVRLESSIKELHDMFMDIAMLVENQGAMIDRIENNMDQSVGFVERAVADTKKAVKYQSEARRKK

[2] = target: T2, syntaxin-3b cytoplasmic domain (residues 1–264) with C-terminal Avi-tag, T14E phosphomimetic mutant (mouse, UniProt Q64704-2 1-264, T14E, Alexa 488 (NHS ester) at the N-terminal primary amino group in the anisotropy assays; biotin (NHS-biotin) at the N-terminal primary amino group in the pull-downs); test: as above
T2 construct: syntaxin-3b (splice isoform 3b of syntaxin-3), cytoplasmic domain, residues 1-264, with T14E; Made from the syntaxin-3b construct with the QuickChange Kit; also called syntaxin-3b T14E; source: E. coli BL21 (DE3*), purified (Ni-NTA, TEV cleavage, HiTrap Q); not shown: His6, N-terminal, cleaved
T2 sequence (looked up): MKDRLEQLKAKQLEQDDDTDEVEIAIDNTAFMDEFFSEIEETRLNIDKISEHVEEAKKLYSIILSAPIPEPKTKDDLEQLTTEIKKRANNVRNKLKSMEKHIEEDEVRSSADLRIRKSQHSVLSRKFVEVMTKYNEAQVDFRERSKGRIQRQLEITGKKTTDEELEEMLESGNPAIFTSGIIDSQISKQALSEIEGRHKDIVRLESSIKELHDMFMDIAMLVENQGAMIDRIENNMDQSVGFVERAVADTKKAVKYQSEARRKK

[3] = target: T3, syntaxin-3b cytoplasmic domain (residues 1–264) with C-terminal Avi-tag, LE mutant (L165A, E166A) (mouse, UniProt Q64704-2 1-264, L165A | E166A, Alexa 488 (NHS ester) at the N-terminal primary amino group in the anisotropy assays; biotin (NHS-biotin) at the N-terminal primary amino group in the pull-downs); test: as above
T3 construct: syntaxin-3b (splice isoform 3b of syntaxin-3), cytoplasmic domain, residues 1-264, with L165A and E166A; Made from the syntaxin-3b construct with the QuickChange Kit; also called syntaxin-3b LE; source: E. coli BL21 (DE3*), purified (Ni-NTA, TEV cleavage, HiTrap Q); not shown: His6, N-terminal, cleaved
T3 sequence (looked up): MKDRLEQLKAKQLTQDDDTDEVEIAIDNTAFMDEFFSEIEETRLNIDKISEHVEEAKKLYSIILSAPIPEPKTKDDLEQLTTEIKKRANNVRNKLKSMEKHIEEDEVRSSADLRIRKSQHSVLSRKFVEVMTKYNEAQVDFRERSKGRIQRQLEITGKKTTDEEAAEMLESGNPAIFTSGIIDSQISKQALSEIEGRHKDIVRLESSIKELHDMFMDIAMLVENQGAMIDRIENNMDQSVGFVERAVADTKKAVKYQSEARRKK

[4] = target: T2, syntaxin-3b cytoplasmic domain …; test: pull-down; syntaxins biotinylated at the N-terminal amino group on neutravidin agarose beads; about 300 μg Munc18-1 incubated 1 h, washed, then 500 μg SNAP-25A 1 h at room temperature, washed with TBS; SDS-PAGE, Coomassie, Munc18-1 and SNAP-25 bands normalised to the syntaxin bands (ImageJ)

- Kd [1]: ~316 nM
- Kd [2]: 171 nM
- Kd [3]: 76 nM
- fold increase of binary t-SNARE complex formation against WT syntaxin-3b, in the presence of Munc18-1 [4]: ~3 fold
B1: SNAP-25, full length (natural protein)
chain: not shown
notes: Cloned into pTEV5; also called SNAP-25A; source: E. coli BL21 (DE3*), purified (Ni-NTA, TEV cleavage, HiTrap Q); not shown: His6, N-terminal, cleaved
